From paper PMC7575553
Results are given in words; binding and its absence hold for the method and conditions named. Binding seen in cells or lysates may run through a third protein. Some results given as binding are weak or reduced against the parent protein; the word gives no strength.

The chains behind the UniProt entries cited, without tags or fusion partners.
UniProt Q9Y5S8: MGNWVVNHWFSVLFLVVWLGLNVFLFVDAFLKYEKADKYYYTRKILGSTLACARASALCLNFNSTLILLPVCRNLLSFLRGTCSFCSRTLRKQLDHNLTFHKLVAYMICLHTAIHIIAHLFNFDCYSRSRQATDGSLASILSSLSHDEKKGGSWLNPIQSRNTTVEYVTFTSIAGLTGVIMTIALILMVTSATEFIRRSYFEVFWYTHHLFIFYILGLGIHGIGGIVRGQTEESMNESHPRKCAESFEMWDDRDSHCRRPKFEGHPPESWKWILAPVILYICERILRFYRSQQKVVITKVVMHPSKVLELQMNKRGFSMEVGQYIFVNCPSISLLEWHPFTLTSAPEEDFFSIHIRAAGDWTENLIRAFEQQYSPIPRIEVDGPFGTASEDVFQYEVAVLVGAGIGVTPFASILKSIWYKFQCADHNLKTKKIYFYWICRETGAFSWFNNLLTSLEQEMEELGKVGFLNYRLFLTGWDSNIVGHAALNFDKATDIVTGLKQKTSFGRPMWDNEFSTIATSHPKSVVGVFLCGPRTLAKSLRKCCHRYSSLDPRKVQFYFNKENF
UniProt Q03135: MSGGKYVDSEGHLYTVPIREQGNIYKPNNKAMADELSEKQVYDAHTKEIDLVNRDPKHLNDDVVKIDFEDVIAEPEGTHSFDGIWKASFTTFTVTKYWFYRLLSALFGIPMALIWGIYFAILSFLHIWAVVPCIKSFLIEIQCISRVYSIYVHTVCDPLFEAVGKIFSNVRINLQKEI
UniProt Q99497: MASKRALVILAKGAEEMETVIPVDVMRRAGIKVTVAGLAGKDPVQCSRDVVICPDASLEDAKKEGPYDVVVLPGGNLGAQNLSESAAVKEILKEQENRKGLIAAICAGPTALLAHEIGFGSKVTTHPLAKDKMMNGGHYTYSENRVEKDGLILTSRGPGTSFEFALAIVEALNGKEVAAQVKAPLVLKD

B1: Nox5 (enzyme, UniProt Q96PH1 1-765)
chain: MNTSGDPAQTGPEGCRGTMSAEEDARWLRWVTQQFKTIAGEDGEISLQEFKAALHVKESFFAERFFALFDSDRSGTITLQELQEALTLLIHGSPMDKLKFLFQVYDIDVCARQGASAGTEWGAGAGPHWASSPLGTGSGSIDPDELRTVLQSCLRESAISLPDEKLDQLTLALFESADADGNGAITFEELRDELQRFPGVMENLTISAAHWLTAPAPRPRPRRPRQLTRAYWHNHRSQLFCLATYAGLHVLLFGLAASAHRDLGASVMVAKGCGQCLNFDCSFIAVLMLRRCLTWLRATWLAQVLPLDQNIQFHQLMGYVVVGLSLVHTVAHTVNFVLQAQAEASPFQFWELLLTTRPGIGWVHGSASPTGVALLLLLLLMFICSSSCIRRSGHFEVFYWTHLSYLLVWLLLIFHGPNFWKWLLVPGILFFLEKAIGLAVSRMAAVCIMEVNLLPSKVTHLLIKRPPFFHYRPGDYLYLNIPTIARYEWHPFTISSAPEQKDTIWLHIRSQGQWTNRLYESFKASDPLGRGSKRLSRSVTMRKSQRSSKGSEILLEKHKFCNIKCYIDGPYGTPTRRIFASEHAVLIGAGIGITPFASILQSIMYRHQKRKHTCPSCQHSWIEGVQDNMKLHKVDFIWINRDQRSFEWFVSLLTKLEMDQAEEAQYGRFLELHMYMTSALGKNDMKAIGLQMALDLLANKEKKDSITGLQTRTQPGRPDWSKVFQKVAAEKKGKVQVFFCGSPALAKVLKGHCEKFGFRFFQENF

Experiments:
Experiment in all cases: co-IP; immunoprecipitation from 200-500 ug protein lysates of primary human VSMCs with antibodies to Cav-1, total DJ1, Nox5 or Nox1; immunoblot of the precipitates for Cav-1, Nox1, Nox5 and DJ1
[1] = molecular target: T1, Nox5 (human (endogenous in primary VSMCs)) (UniProt Q96PH1)
T1 sequence: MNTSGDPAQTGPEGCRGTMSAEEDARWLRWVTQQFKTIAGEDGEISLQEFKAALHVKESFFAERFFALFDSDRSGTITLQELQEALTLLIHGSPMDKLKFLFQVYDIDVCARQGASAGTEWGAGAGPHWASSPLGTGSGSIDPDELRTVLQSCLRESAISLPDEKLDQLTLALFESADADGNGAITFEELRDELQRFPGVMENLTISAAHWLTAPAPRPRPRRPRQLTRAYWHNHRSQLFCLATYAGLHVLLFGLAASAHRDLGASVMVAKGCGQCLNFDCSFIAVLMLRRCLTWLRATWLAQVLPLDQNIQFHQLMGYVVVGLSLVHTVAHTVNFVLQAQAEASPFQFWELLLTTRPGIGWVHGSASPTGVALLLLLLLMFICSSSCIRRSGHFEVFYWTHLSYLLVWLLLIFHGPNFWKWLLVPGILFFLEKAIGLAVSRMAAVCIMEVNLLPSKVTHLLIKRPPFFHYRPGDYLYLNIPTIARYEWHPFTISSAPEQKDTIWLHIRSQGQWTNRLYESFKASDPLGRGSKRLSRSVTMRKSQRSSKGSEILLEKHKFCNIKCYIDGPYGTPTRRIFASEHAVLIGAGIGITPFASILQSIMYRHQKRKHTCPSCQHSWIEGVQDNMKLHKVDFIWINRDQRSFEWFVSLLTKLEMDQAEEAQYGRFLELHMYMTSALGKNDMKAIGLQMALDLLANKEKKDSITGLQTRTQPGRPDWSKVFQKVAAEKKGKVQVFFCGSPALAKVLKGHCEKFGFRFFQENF

[2] = molecular target: Nox1 (human (endogenous in primary VSMCs)) (UniProt Q9Y5S8)
[3] = molecular target: caveolin-1 (human (endogenous in primary VSMCs)) (UniProt Q03135)

| Molecule | binding [1] | binding [2] | binding [3] |
| --- | --- | --- | --- |
| PARK7 (Parkinson's disease protein-7) (from UniProt Q99497 1-189) | no binding | binds | binds |
| Nox1 (from UniProt Q9Y5S8 1-564) (enzyme) |  |  | binds |
| B1 |  |  | no binding |
